We go through 14 molecules from the antibiotic and cytotoxicity screens of Wong et al. (2023).

Some of the results follow.

The test system of the experiment is HepG2. Briefly: cytotoxicity call (relative viability < 0.9). The note with it: 10 µM.
With `CS(=O)(=O)N1C[C@H](O)COC[C@@H]2O[C@@H](CC(=O)NCCc3ccncc3)CC[C@H]21`, the cytotoxicity call is “inactive”. As for `COCC(=O)N1C[C@@H](C)[C@@H](OC)CN(C)C(=O)c2cc(NC(=O)c3ccc(OC)cc3)ccc2OC[C@@H]1C`, the cytotoxicity call was “inactive”.

For `CC(C)NC(=O)N(C)C[C@H]1Oc2ccc(NS(=O)(=O)c3ccc(F)cc3)cc2CC(=O)N([C@H](C)CO)C[C@@H]1C`, the cytotoxicity call was “inactive”.

Turning to `Cc1noc(C)c1NC(=O)Nc1ccc2c(c1)C(=O)N([C@H](C)CO)C[C@H](C)[C@H](CN(C)C(=O)Nc1cccc3ccccc13)O2`, the cytotoxicity call is “inactive”. For `CCCNC(=O)[C@@]1(C)c2ccccc2C(=O)N(Cc2ccc(OC(F)(F)F)cc2)[C@H]1c1ccc(CO)cc1`, the cytotoxicity call was “inactive”. The entry for `Cc1noc(C)c1S(=O)(=O)Nc1ccc2c(c1)C(=O)N([C@@H](C)CO)C[C@H](C)[C@@H](CN(C)C(=O)Nc1ccc(C(F)(F)F)cc1)OCCCC[C@@H](C)O2` is “inactive”; for `CCCC#Cc1ccc2c(c1)O[C@@H](CN(C)S(=O)(=O)c1cccc(F)c1)[C@@H](C)CN([C@@H](C)CO)S2(=O)=O` it is “inactive”. Take `COc1ccc(CN(C)C[C@H]2OCCCC[C@@H](C)Oc3ccc(NC(=O)NC(C)C)cc3C(=O)N([C@H](C)CO)C[C@H]2C)cc1`: the cytotoxicity call is “inactive”. Take `CN(C)C(=O)C[C@@H]1CC[C@H](NC(=O)C2CCOCC2)[C@H](CO)O1`: the cytotoxicity call was “inactive”. Consider `C[C@H]1CN([C@@H](C)CO)C(=O)c2cccc(NC(=O)C3CCOCC3)c2O[C@@H]1CN(C)C(=O)NC1CCCCC1`, for which the cytotoxicity call is “inactive”. The entry for `C[C@H]1CCCCO[C@H](CN(C)Cc2ccc3c(c2)OCO3)[C@@H](C)CN([C@@H](C)CO)C(=O)c2cc(NC(=O)CCC(F)(F)F)ccc2O1` is “inactive”; for `COc1ccc(S(=O)(=O)Nc2ccc3c(c2)C(=O)N([C@@H](C)CO)C[C@@H](C)[C@@H](CN(C)C(=O)Nc2ccccc2)OCCCC[C@H](C)O3)cc1` it is “inactive”. In the case of `O=C(C[C@H]1C=C[C@@H](NC(=O)c2cccc(F)c2)[C@@H](CO)O1)NCCN1CCCC1`, the cytotoxicity call was “inactive”. Turning to `C[C@H]1CCCCO[C@@H](CN(C)CC2CCCCC2)[C@@H](C)CN([C@@H](C)CO)C(=O)c2cc(NC(=O)CCCN(C)C)ccc2O1`, the cytotoxicity call was “active”.
